This passage reports survival results from PubChem BioAssay AID463173 (ICCB-Longwood Screening Facility, Harvard Medical School, 2010).

SMILES strings stand for the structures. Hit rate of the full screen: of about 52,000 compounds, about 4,300 (8.3%) were called active. Rule as the data show it: active = survival mostly below about 52% (no sharp cut-off); inactive = mostly above about 56%. This is one part of the list.

The assay has as its system DeltatarO mutant. Briefly: growth inhibition of S. aureus wild type versus tarO mutant, primary screen, teichoic acid synthesis inhibitors, RN4220, OD600 (AID 463173). The settings on record: OD600, 18 h, stronger effect = lower value, screened at 18.75 µg/mL (by protocol).
For the molecule `Cc1ccc(C(=O)NCc2ccc3c(c2)CCN3C(=O)c2ccc(C)cc2)cc1`, the survival is inactive: 83%.
Regarding `CCOC(=O)c1cc(-c2ccc(OC)c(S(=O)(=O)NC3CCCCC3)c2)on1`, the survival was inactive: 89%.
Next, `Cn1c(=O)c2c(nc(SCC(=O)N3CCCC3)n2C)n(C)c1=O`: inactive: 89%; `COc1ccc(CCNC(=O)CN2C(=O)COc3ccc(C)cc32)cc1OC`: active: 45%.
Next, `COc1ccccc1N(CC(=O)N1CCC(C)CC1)S(=O)(=O)c1ccc(C)cc1`: inactive: 134%.
In the case of `N#Cc1cc(-c2ccc(Cl)cc2)no1` it was inactive: 97%.
As to `COc1ccc(CCNC(=O)c2ccc3c(c2)CCN3S(=O)(=O)c2ccccc2)cc1OC`, the survival was inactive: 88%.
Next, `CCOc1ccccc1NC(=O)Cn1c(=O)n(Cc2ccccc2)c(=O)c2c1c1cc(C)ccc1n2C`: inactive: 90%; `Cc1ccc(-n2ncc(C(=O)NCc3ccccc3)c2C2CCN(C(=O)OC(C)(C)C)CC2)cc1`: inactive: 94%.
Next, `Cc1cc(Nc2cccc(Cl)c2)nc2ccc(NC(=O)Cc3ccc(Cl)cc3)cc12`: inactive: 105%; `CN(C)C(=O)N1CCN(S(=O)(=O)c2ccccc2)CC1`: inactive: 113%.
In the case of `COc1ccc(NC(=O)c2sc3nc4c(cc3c2N)CCCCCC4)c(OC)c1` it was inactive: 62%; in that of `COc1cc(N2C(=O)CSC23C(=O)N(Cc2cccc(F)c2)c2ccccc23)cc(OC)c1OC` (centres undefined), inactive: 86%.
For `CCN(CC)CCNC(=O)CN1C(=O)COc2ccc(S(=O)(=O)N3CCOCC3)cc21`, the survival was inactive: 93%.
In the case of `CCOC(=O)Cn1c(=O)n(CC2CCCO2)c2nc(-c3ccc(OCC)cc3)nc(C(N)=O)c21` (centres undefined) it was active: -2%; in that of `Cc1ccc(Cl)cc1Nc1sc(C(=O)c2ccc(F)cc2)c(N)c1S(C)(=O)=O`, inactive: 72%; in that of `CS(=O)c1nc(-c2cccs2)cc(-c2ccccc2)c1C#N` (centres undefined), inactive: 73%.
Next, `CCCc1nnc(SCC(=O)NC2CC2)n1CC`: inactive: 56%; `CCN1CC2CCCC3(C1)C(=O)NC1(CCCCC1)N=C23` (centres undefined): inactive: 74%.
In the case of `CCOc1ccc(CNCCCSc2nnnn2C)cc1OC` it was inactive: 74%.
With `O=C(CSc1nc(=O)n(Cc2ccco2)c2c1CCC2)Nc1cccc(F)c1`, the survival was inactive: 90%.
For the molecule `COc1cccc(CNC(=O)Cc2csc3nc(-c4ccccc4)cn23)c1`, the survival was inactive: 83%.
Regarding `COc1ccccc1OCc1nnc(-c2ccccc2)o1`, the survival is inactive: 53%.
In the case of `CCCCOC(=O)c1ccc(OC(=O)c2sc3ncn(Cc4ccccc4Cl)c(=O)c3c2C)cc1` it was inactive: 90%; in that of `N#Cc1nc2ccccc2[nH]1`, inactive: 92%; in that of `COc1ccccc1CNC(=O)c1cnc(N(C)C)nc1`, inactive: 78%.
Next, `COc1ccc(CC(=O)Nc2sc3c(c2C(=O)Nc2cccc(C)c2)CCCCC3)cc1`: active: 43%.
Next, `Cc1ccccc1Nc1c(-c2ccc(Br)cc2O)nc2sccn12`: inactive: 64%; `CCOc1ccc(NC(=O)Cn2cc(C(=O)c3ccc(OC)cc3)c(=O)c3cc4c(cc32)OCO4)cc1`: inactive: 83%.
Take `COc1ccccc1N1CCN(C(c2ccc(Cl)cc2)c2nnc(-c3cccc(F)c3)o2)CC1` (centres undefined): the survival is inactive: 62%.
Next, `O=C(Nc1ccc(Cl)c(-c2nc3ccccc3o2)c1)c1ccc(-c2cccc([N+](=O)[O-])c2)o1`: active: 37%.
Next, `Cc1ccc(Nc2cc(C)nc(-n3nc(C)cc3C)n2)cc1`: inactive: 115%; `O=C(Nc1ccc(OC(F)(F)F)cc1)C1CCN(S(=O)(=O)c2ccc3[nH]c(=O)ccc3c2)CC1`: inactive: 92%.
Consider `Cc1ccc(N2CC(C(=O)NCCS(=O)(=O)N3CCN(c4ccccc4F)CC3)CC2=O)cc1` (centres undefined), for which the survival was inactive: 80%.
Next, `Cc1ccc(NC(=O)CSc2nc3ccc(Br)cc3[nH]2)c(C)c1`: active: 42%; `CCn1c(CNc2ccc(C)cc2)nnc1SCc1ccccc1`: inactive: 115%.
In the case of `CC1=C(c2ccc(C(C)C)cc2)S(=O)(=O)NC1=NCc1ccccc1C` it was inactive: 77%; in that of `CN(C)CCN(C(=O)c1ccco1)c1nc2c(F)cc(F)cc2s1`, inactive: 72%.
Next, `CC1CCN(C(=O)CSc2c3c(nc4ccc(Cl)cc24)CCCC3)CC1`: active: 0%; `O=C(COc1ccc(F)cc1)Nc1nnc(S(=O)(=O)N2CCc3ccccc32)s1`: active: 17%.
Consider `CCOc1ccc(N(Cc2ccccc2)C(=O)c2nc(SCC)ncc2Cl)cc1`, for which the survival is inactive: 106%.
`Cc1cccc(NC(=O)CSc2nc3ccccc3nc2N2CCC(C)CC2)c1`: the survival is active: 8%.
Turning to `Cc1ccc(-n2nc(C(=O)N3CCN(c4ccc(F)cc4)CC3)c(=O)n(C)c2=O)cc1`, the survival was inactive: 67%.
In the case of `COc1ccc2nc(NC(=O)c3nc(S(=O)(=O)Cc4ccccc4F)ncc3Cl)sc2c1` it was inactive: 61%; in that of `Cc1ccc(-c2noc(CNC(=O)COc3cc(C)c(Br)c(C)c3)n2)cc1`, inactive: 80%.
In the case of `CCOCCc1nnc(NC(=O)C(=O)c2cc(C)n(-c3cccc(C)c3)c2C)s1` it was inactive: 65%; in that of `CCOc1ccc(CNC(=O)c2ccc3c(c2)sc2nc(-c4ccccc4)cn23)cc1`, inactive: 74%; in that of `O=C(NC1CCCCC1)c1ccc2c(c1)N(Cc1cccc(F)c1)C(=O)c1ccccc1S2`, inactive: 88%.
In the case of `O=C(NC1CCCCC1)c1ccc2c(c1)sc1nc(-c3ccc(F)cc3)cn12` it was inactive: 62%; in that of `CCCCc1nn2c(=O)cc(COC(=O)c3cccc(NC(=O)c4cccc(Cl)c4)c3)nc2s1`, inactive: 77%.
For `Cc1ccc(CNC(=O)c2ccc(CS(=O)(=O)Cc3ccc(F)cc3)o2)cc1`, the survival is inactive: 77%.
With `Cc1ccccc1CN1CCc2nc(N3CCN(c4ncccn4)CC3)ncc2C1`, the survival is inactive: 88%.
Next, `CCOc1nc(-c2ccccc2)cc(-c2ccccc2)n1`: inactive: 69%; `CCCCCC[N+]1(CCO)CCOCC1`: inactive: 81%; `COc1ccc(CCCc2nnc(SCC(=O)Nc3cccc(C)c3)o2)cc1C`: inactive: 80%.
In the case of `CCCCN(C)CCCNC(=O)Cn1ncc2c3ccccc3n(Cc3cccc(Cl)c3)c2c1=O` it was inactive: 85%; in that of `CCOc1ccccc1C(=O)Oc1c(S(=O)(=O)c2ccc(C)cc2)c(C)nn1-c1ccccc1`, inactive: 88%.
In the case of `Cc1cccc(N2CCN(S(=O)(=O)c3cn(C)c(C)n3)CC2)c1C`, the survival was active: 0%.
Consider `NC(=O)c1cc2c([nH]c1=O)CCCCCCCCCC2`, for which the survival is inactive: 104%.
